Test results from the supplement of paper PMC12217912.
This is one part of the list. The full chains were built here from the parent and the listed change. Values near 0.05 are background.

B1: TEV protease; numbered along this chain (parent)
chain: MGESLFKGPRDYNPISSSICHLTNESDGHTTSLYGIGFGPFIITNKHLFRRNNGTLVVQSLHGVFKVKDTTTLQQHLVDGRDMIIIRMPKDFPPFPQKLKFREPQREERICLVTTNFQTKSMSSMVSDTSCTFPSGDGIFWKHWIQTKDGQCGSPLVSTRDGFIVGIHSASNFTNTNNYFTSVPKNFMELLTNQEAQQWVSGWRLNADSVLWGGHKVFMVKPEEPFQPVKEATQL

Variants of: B1
Assay: raw area under fraction-flipped curve 0-4 h after induction (AUC4h, not background-subtracted), DNA-recorder readout of cleavage of the substrate (dimensionless); higher = more cleavage of the substrate by the protease variant
Conditions: temperature: 34 °C; time window: 0-4 h after rhamnose induction
Procedure: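 In vivo DNA recorder in E. coli TOP10(DE3) ΔrhaA at 34 °C. Each TEVp single-site mutant (parent TEVp 0) is paired with a single-site variant of the 7-mer TEVs (canonical ENLYFQ|S). The substrate sits between flexible linkers in a Bxb1-sfGFP-TEVs-SsrA fusion, so cleavage stabilises Bxb1 and speeds flipping of a recombination array, read by NGS. The value is the raw area under the fraction-flipped curve over 0-4 h after rhamnose induction (AUC4h), with ≥20 reads per time point. It is not background-subtracted; inactive controls average about 0.047.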
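Also: Bxb1 expression induced with 0.2% (w/v) L-rhamnose at OD600 near 0.5, cultures sampled hourly, flipped fraction per protease–substrate barcode pair counted by paired-end Illumina sequencing.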

Variant | area with substrate ENLYFQA | area with substrate ENLYFQC | area with substrate ENLYFQD | area with substrate ENLYFQH | area with substrate ENLYFQI | area with substrate ENLYFQL | area with substrate ENLYFQM | area with substrate ENLYFQN | area with substrate ENLYFQR | area with substrate ENLYFQS | area with substrate ENLYFQT | area with substrate ENLYFQW | area with substrate ENLYFQY | area with substrate ENLYFQF | area with substrate ENLYFQG | area with substrate ENLYFQK | area with substrate ENLYFQP | area with substrate ENLYFQQ | area with substrate ENLYFQV | area with substrate ENLYFQE
S4F | 0.138 | 0.13 | 0.0838 | 0.101 | 0.0659 | 0.0679 | 0.134 | 0.105 | 0.0641 | 0.143 | 0.0701 | 0.0943 | 0.0936 | – | – | – | – | – | – | –
S16P | 0.0812 | 0.116 | 0.0855 | 0.0806 | – | 0.057 | 0.0861 | 0.0696 | 0.0518 | 0.0983 | 0.0759 | 0.06 | 0.0861 | 0.0799 | 0.101 | 0.0535 | 0.0679 | 0.067 | – | –
R50V | 0.14 | – | 0.0597 | 0.102 | 0.0696 | 0.113 | 0.114 | 0.0853 | 0.077 | 0.134 | 0.0599 | 0.0726 | 0.066 | 0.0792 | – | – | 0.0598 | – | 0.0608 | –
R50F | 0.121 | 0.172 | 0.088 | 0.104 | – | 0.07 | 0.136 | – | 0.046 | 0.141 | 0.0362 | 0.0806 | 0.0802 | – | 0.112 | 0.0785 | – | – | 0.0688 | –
F6R | 0.0805 | – | – | 0.108 | – | 0.0686 | – | 0.0699 | 0.0694 | 0.104 | 0.0753 | – | 0.0028 | – | – | – | – | – | – | –
F41K | 0.0679 | 0.0644 | – | 0.044 | – | 0.0633 | 0.0806 | – | 0.0388 | 0.0624 | 0.0504 | – | 0.0044 | – | 0.0936 | 0.0523 | 0.0575 | – | – | –
F41R | 0.0497 | 0.0404 | – | 0.0522 | – | – | 0.0565 | – | 0.0677 | 0.0558 | 0.0637 | – | 0.0516 | 0.0667 | 0.0585 | 0.0561 | 0.0603 | – | 0.0578 | –
F41S | 0.0812 | 0.0922 | 0.0311 | 0.0716 | 0.0469 | 0.0554 | 0.0648 | 0.0618 | 0.0439 | 0.0829 | 0.048 | 0.0798 | 0.062 | – | 0.0726 | 0.049 | 0.0609 | 0.0639 | 0.0386 | 0.0767
L33E | 0.0644 | 0.0935 | 0.0087 | – | – | – | – | 0.0663 | 0.0643 | 0.0715 | 0.0683 | 0.0623 | – | – | 0.0708 | 0.0622 | – | – | 0.0517 | –
Y12F | 0.101 | 0.112 | 0.0892 | – | – | 0.0672 | 0.0991 | 0.0659 | 0.059 | 0.107 | 0.0643 | 0.0629 | 0.0969 | 0.0684 | 0.0918 | 0.0564 | 0.0602 | 0.03 | 0.0803 | –
Y34E | 0.08 | – | 0.0748 | 0.0642 | – | 0.0597 | 0.0611 | – | 0.0501 | 0.0773 | – | 0.0725 | 0.0219 | 0.0741 | 0.0651 | – | – | – | 0.0736 | 0.0549
F49E | 0.0533 | 0.0603 | 0.0595 | 0.0513 | 0.0513 | 0.0486 | 0.0587 | 0.0507 | 0.0525 | 0.0564 | 0.0549 | 0.0519 | 0.0524 | 0.0719 | – | 0.0621 | 0.0604 | 0.0623 | 0.0275 | –
D27R | 0.102 | 0.0895 | – | – | – | – | – | 0.0813 | 0.054 | 0.0897 | – | 0.0566 | 0.0815 | – | – | – | – | – | – | –
S60A | 0.0655 | 0.119 | 0.062 | 0.0758 | 0.052 | 0.0612 | 0.0776 | 0.0787 | 0.0635 | 0.0952 | 0.0692 | 0.0644 | 0.0601 | – | 0.0939 | 0.0667 | 0.0683 | 0.0879 | 0.05 | –
V78K | 0.0589 | – | – | – | 0.0503 | 0.0434 | 0.0561 | 0.052 | 0.0444 | 0.0588 | 0.0721 | 0.0552 | – | 0.0428 | 0.0511 | 0.054 | 0.0545 | – | 0.0519 | –
P14V | 0.089 | 0.102 | 0.0939 | 0.0473 | 0.0321 | 0.0557 | 0.0809 | 0.0566 | – | 0.0897 | 0.0702 | 0.0589 | 0.0705 | 0.0891 | 0.0727 | 0.0718 | – | – | 0.0622 | –
P14Q | 0.03 | 0.142 | 0.0912 | 0.092 | 0.0468 | – | 0.0878 | – | 0.0756 | 0.11 | 0.0675 | – | 0.0856 | 0.0812 | – | 0.0438 | – | 0.0635 | 0.0626 | –
T31L | 0.153 | 0.163 | – | 0.0865 | 0.0515 | 0.0648 | 0.143 | 0.0894 | 0.0508 | 0.111 | – | 0.0595 | – | 0.125 | 0.143 | 0.0529 | – | 0.0646 | – | –
T31H | 0.0734 | 0.0821 | 0.0758 | 0.062 | 0.0412 | – | – | 0.0627 | 0.0591 | 0.0915 | – | 0.071 | 0.0685 | 0.0705 | 0.0871 | – | – | – | 0.0694 | –
K7N | 0.0712 | 0.132 | 0.0843 | 0.0861 | 0.0611 | 0.0171 | – | 0.0879 | 0.0758 | 0.107 | 0.0695 | 0.0703 | – | – | 0.0762 | 0.0689 | 0.0646 | 0.0703 | – | –
H62C | 0.0902 | 0.098 | – | 0.0519 | 0.0621 | 0.0698 | 0.0778 | 0.0727 | 0.0572 | 0.103 | 0.061 | 0.0704 | 0.0933 | 0.0766 | 0.0935 | 0.0547 | – | 0.0653 | 0.0661 | –
T44V | 0.079 | 0.0855 | 0.0439 | 0.056 | 0.0455 | 0.0657 | 0.0627 | 0.0798 | – | 0.0774 | 0.0706 | 0.0655 | – | 0.062 | – | 0.0649 | 0.0521 | 0.0634 | – | –
T70V | 0.0784 | 0.0853 | – | 0.0636 | 0.0564 | 0.0544 | 0.0683 | 0.0652 | 0.0643 | 0.0755 | 0.0685 | 0.0604 | 0.0641 | 0.0565 | – | 0.0588 | – | 0.0671 | 0.0599 | –
T70M | 0.0856 | 0.156 | – | – | – | 0.0573 | – | 0.0819 | 0.0755 | 0.0963 | – | – | – | – | – | 0.0596 | – | – | – | –
Q75H | 0.0748 | 0.054 | 0.0741 | 0.0586 | 0.0559 | 0.0513 | – | 0.0571 | 0.0594 | 0.0758 | 0.0675 | 0.0689 | 0.0652 | – | 0.0659 | – | 0.0693 | – | 0.0599 | 0.0552
